Screen size: about 310,000 compounds; about 2,200 (0.71%) showed an effect of 50% or more. Effects have a minus sign here. Some of the results follow.
molecular target: human ether-à-go-go-related gene (hERG) potassium channel (human, UniProt Q12809); assay: primary screen, population patch clamp on CHO cells stably expressing hERG
Sequence (Q12809 whole entry, looked up): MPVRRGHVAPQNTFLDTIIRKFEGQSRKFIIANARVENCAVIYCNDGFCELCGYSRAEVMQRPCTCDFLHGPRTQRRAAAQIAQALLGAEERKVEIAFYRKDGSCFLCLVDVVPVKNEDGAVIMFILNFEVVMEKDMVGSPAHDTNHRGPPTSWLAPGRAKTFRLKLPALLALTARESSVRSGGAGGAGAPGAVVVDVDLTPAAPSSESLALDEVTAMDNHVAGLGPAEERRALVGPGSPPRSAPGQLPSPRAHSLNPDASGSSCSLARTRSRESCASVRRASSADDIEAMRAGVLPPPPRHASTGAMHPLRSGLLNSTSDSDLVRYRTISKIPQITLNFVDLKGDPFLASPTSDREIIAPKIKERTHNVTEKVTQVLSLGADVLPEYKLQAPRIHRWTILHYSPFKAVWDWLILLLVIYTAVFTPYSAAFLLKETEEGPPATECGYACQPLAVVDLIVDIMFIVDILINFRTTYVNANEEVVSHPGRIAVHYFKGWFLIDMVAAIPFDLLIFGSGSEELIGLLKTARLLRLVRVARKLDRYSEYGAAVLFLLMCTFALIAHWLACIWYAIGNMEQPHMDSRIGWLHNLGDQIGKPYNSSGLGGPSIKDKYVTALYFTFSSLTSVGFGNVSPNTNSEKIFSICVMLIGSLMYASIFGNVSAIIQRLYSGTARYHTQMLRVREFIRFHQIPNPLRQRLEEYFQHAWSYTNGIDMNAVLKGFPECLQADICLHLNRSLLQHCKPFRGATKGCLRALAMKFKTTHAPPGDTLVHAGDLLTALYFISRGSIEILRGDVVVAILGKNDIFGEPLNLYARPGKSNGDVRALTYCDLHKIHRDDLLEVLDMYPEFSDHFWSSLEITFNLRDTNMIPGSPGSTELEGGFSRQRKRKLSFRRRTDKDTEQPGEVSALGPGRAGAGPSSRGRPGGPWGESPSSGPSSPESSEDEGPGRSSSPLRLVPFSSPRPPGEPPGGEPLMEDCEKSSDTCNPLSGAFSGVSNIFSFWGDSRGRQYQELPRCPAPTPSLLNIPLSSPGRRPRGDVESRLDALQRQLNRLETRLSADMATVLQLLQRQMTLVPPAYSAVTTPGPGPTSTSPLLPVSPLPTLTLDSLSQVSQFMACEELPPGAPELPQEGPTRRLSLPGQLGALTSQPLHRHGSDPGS

Row | SMILES | hERG current change (%, negative = inhibition) at 1uM [%]
1 | Cc1occc1C(=O)NC1CCCCCC1 | 14
2 | COc1ccccc1-n1ccnc1SCC(=O)NCc1ccco1 | 6.19
3 | COc1ccccc1N1CCN(/N=C/c2cccc(OC)c2OC)CC1 | 5.31
4 | CCn1c(SCC(=O)Nc2cc(C)on2)nnc1-c1c[nH]c2ccccc12 | 13.8
5 | Cc1ccc(C(=O)NC2CCCCC2)cc1S(=O)(=O)N1CCCC1 | -5.72
6 | Clc1ccc2c(N3CCOCC3)ccnc2c1 | 0.204
7 | CCCCCCCN1C(Nc2ccccc2)=NC[C@@H]1CC(C)C | -44.6
8 | O=C(CN1CCN(CCC(=O)Nc2ccccc2F)CC1)Nc1ccc(F)cc1 | -78.3
9 | COc1ccc(CCNC(=O)c2cccc(NC3=NC4CS(=O)(=O)CC4S3)c2)c(OC)c1 (stereo not drawn) | -0.0522
10 | CCOC(=O)CNC(=O)c1ccc(SCC)cc1 | 6.95
11 | O=C(NCCCN1CCOCC1)C1CCC(=O)N1C1CCCCC1 (stereo not drawn) | 3.9
12 | Clc1ss/c(=N\c2ccccn2)c1Cl | 10.4
13 | CC(=O)c1ccc(OCCCC(=O)NC2CCCCC2C)cc1 (stereo not drawn) | 5.85
14 | CCN1C(=O)NC2C1N(S(C)(=O)=O)CCN2S(C)(=O)=O (stereo not drawn) | 8.06
15 | COCCNC(=O)C(c1ccc(C)cc1)N(CCOC)C(=O)CCC(=O)Nc1ccccn1 (stereo not drawn) | 14.5
16 | Cc1cc(NC(=O)CSc2nc(C(C)C)nc3ccccc23)no1 | 1.71
17 | CCCC(=O)Nc1c(O)c2ccccc2[nH]c1=O | 10.6
18 | Cc1ccnc2nc(C(=O)OCC(=O)c3c[nH]c4ccccc34)nn12 | 24.2
19 | CCC(CC)C(=O)Nc1ccc(C(=O)Nc2cc(C)on2)cc1 | 6.94
20 | NS(=O)(=O)c1ccc(NC(=S)NCC2CCCO2)cc1 (stereo not drawn) | 6.88
21 | COc1ccc(OCC(=O)Nc2cccc(C(C)=O)c2)cc1 | -6.73
22 | CCCc1nnc(SCC(=O)Nc2ccc3c(c2)OCCO3)n1CCOC | 22.2
23 | CCOC(=O)C1CCN(S(=O)(=O)Cc2ccccc2)C1=O (stereo not drawn) | 9.67
24 | Cc1cc(S(=O)(=O)NCC(c2ccc(F)cc2)N2CCN(C)CC2)ccc1F (stereo not drawn) | -39.3
25 | Cc1ccc(/C=C/C(=O)Nc2ccc([N+](=O)[O-])c(NC(=O)/C=C/c3ccc(C)o3)c2)o1 | 12.5
26 | O=C1C2C3c4ccccc4C(c4ccccc43)C2C(=O)N1CN1CCOCC1 (stereo not drawn) | 13.5
27 | COC(=O)CCc1c(C)[nH]c(C(=O)OCc2ccccc2)c1C | 11

From publication PMC4336329 (PLoS ONE, 2015)
